# According to the supplement of paper PMC11417369:
# The list shows a part of the results.
# Test system: PfHDP1 homeodomain (GST-tagged)
# Assay: gcPBM binding intensity (ln(normalized median fluorescence intensity)); higher = stronger DNA binding
# Summary of the method: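 Binding intensity values are the highest Masliner-normalised natural-log median intensity among replicate spots of either probe orientation. The binding step lasted 1 h in 1× PBS with 1% milk, 0.2 mg/ml BSA, 0.5% salmon testes DNA and 0.03% Triton X-100, using GST-tagged P. falciparum DNA-binding domains expressed in E. coli on an Agilent 4 × 180k array of primer-extended double-stranded 36-bp intergenic genomic probes plus negative controls. Alexa488 anti-GST antibody and a 488 nm scan detected bound protein.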
row,Sequence,gcPBM binding intensity (ln)
1,ATATATTCCATAAAGGTGCTGTTAACGTGTCAACGT [GTGCAC_site9402],6.26
2,TAAGTATACACATACACACACACACTAAAAAAAAAA [CACACA_site6337],6.95
3,ATAAAATACATATAAACACACATATAAACCGACATA [CACACA_site2477],6.86
4,TAAACATAAATATGCACACATATACAGATATTCATA [CACACA_site5471],9.87
5,TTTTACTTAAGACACACACACACAAAAAAAAAAAAA [CACACA_site6573],6.43
6,AGTTTTTACTCTAATGGTACAGTGCAACTAATAAAT [XGTACX_site6950],8.68
7,TTTTTTTTCCTAATGTGTACTAAAAATGAACAATAA [XGTACX_site5248],6.66
8,AAAAAAAAGAAACACACACACATACACATAAATATA [CACACA_site3807],6.9
9,ATATTTTTTTCATAGACACACACAATATATCTGTTT [CACACA_site8993],6.71
10,AACATTATTTTGTGTACACATTCGGTTATATTATAT [CACACA_site5628],8.28
11,ACTTTATTTTCCTGTACACACATTTGACATATTAAA [CACACA_site3378],7.77
12,AAAAACAAAAAAAAAACACACAATTCTAGTTATTTT [CACACA_site2767],6.04
13,CACCAAACTAAATGTACACACATACATAAATATAAA [CACACA_site4765],6.57
14,TTTAAATTTTAATATGCACACAAAATGTTATATTAA [CACACA_site8015],9.9
15,TTTCTGATATTTTTATATTTTCTTATATATATATAT [GTGCAC_negctrl_site652],8.86
16,AATACGAAGGATAAGAGTACTAATTAAATAAATGAA [XGTACX_site523],6.87
17,ATATAAGAATAAATAGTGCAAAATAAATGATTATTT,9.83
18,GTATATAAGTATATATGTACATATATTTTATATATA [XGTACX_site4745],6.33
19,TTTTATAATTTAAAATAATGAAACTTCTTTCTATTT [TGCATGCA_negctrl_site324],6.03
20,TTTTTTTTTTTTTTGGTGCGATCTTTTAAATGATCC,6.48
21,TTTGAAAAGTATGAGGTGCAAAAAATGTAATGAAAT,9.92
22,TATATTATTATGCATAGTACGTACTGTGATAAGAAT [XGTACX_site2956],6.66
23,CATTTTAAAACAGACACACACCAAAAAAAAAAAAAA [CACACA_site6259],6.42

row,Sequence,gcPBM binding intensity (ln)
1,TTTTTCTGTCGTTGTTGTACTTGAGGAGTAACAATT [XGTACX_site7852],7
2,TTTTCAATTAATAATACACACATGTATATATTATTA [CACACA_site3311],6.81
3,TACAAATACATTACATGTACATATTTAATAATATCA [XGTACX_site2075],6.44
4,AAGAAAAATATATATATAAATAAATAAATATATATA [TGCATGCA_negctrl_site330],6.15
5,TAATAAACCAAACTAAACAATATATCAAAAAGCACA [CACACA_negctrl_site269],6.99
6,AATAATAAATATATATATATATATATATATATATTT [CACACA_negctrl_site786],7.09
7,GCCTTTTTATTTAGAACACACACAAAAAAAAAAAAA [CACACA_site8520],6.47
8,TATTATATCGAACACTGTACTTTTTTATTCAACCTA [XGTACX_site493],6.59
9,ATATTATATAATAATGCATGCACCTTATTTTCATTT [TGCATGCA_site405],8.68
10,ATTATATTATTTTAAAGTACACACATATATTAATAT [XGTACX_site4769],6.85
11,AACAAAATAAAAATAACACACACATTTATATATATA [CACACA_site8313],7.55
12,AAAAGTTGTTTATAATGTACAAGGTAGAAAAAAACA [XGTACX_site1454],7.04
13,TAAATGGATTGTTCAGGTACACATAAATATGATATT [XGTACX_site6963],6.32
14,TGACTACATAAAATGACACACACAAACTTTAAAATT [CACACA_site9151],6.51
15,ATATATTTTTAGCACAGTACAATATAATTAAATATA [XGTACX_site6779],7.02
16,ATAAATACTTTTTGGTGTACACTTTTAAATGAAAAA [XGTACX_site3042],6.72
17,ATTTTTCCTCTCTTTTGTACTTATATATATATATAT [XGTACX_site7405],9
18,CAATTAAAGAAAAACAGTACGTGTATCAAACATCCT [XGTACX_site8990],6.52
19,ATATGCTAATAAAATTGTACATATTATTCATATTGT [XGTACX_site2344],6.37
20,AAAAAAAAAAAAAAAAAAATAAAAAATAAATAAATA [CACACA_negctrl_site1498],6.57
21,TATATATGTATGTATGCATGCCCTTTTTTAAAAAAA [TGCATGCA_site434],6.81
22,AAGAAAAAACAAACATGTACACATAATTTAGTTTTT [XGTACX_site3121],5.93
23,TAGTATTATTATTATGCACACAAAAATATTTATACA [CACACA_site9219],10.4

row,Sequence,gcPBM binding intensity (ln)
1,TTTTTTTTTTTTTTTTGTACATAATTATATATTTAC [XGTACX_site7540],6.42
2,AGCATTTCTTTTACATGTACATAATATTTTTAATAA [XGTACX_site1968],7.3
3,TCCTAAAAAAAAAAAAAAAATGAAAAAGGAAAAAAA [CACACA_negctrl_site1646],5.62
4,TATAAATACATACATACACACATATATATATATATT [CACACA_site6116],6.81
5,TAAAAATAATATATTTGTACATATGTGTATACATAA [XGTACX_site741],6.64
6,AAAAAAAAAAAAAAAAGTACTAAATGTAAAAGAATA [XGTACX_site2164],6.37
7,CAAGCACAGAAACACACACACACACCGACACAGACA [CACACA_site4359],6.74
8,AATGTATTAAAATTACGTACATATGCACATTTTATA [XGTACX_site5046],8.53
9,TACTCTTTCCAGAAGTGTACATAGAAATAATTACAT [XGTACX_site2668],6.43
10,TTTTTTATTTTGTGCACACACATAAAAATATAAATA [CACACA_site6497],11.4
11,TATTTTTTTATTTGTGCATGTCATATTTAAACATAA [TGCATGCA_site1006],9.04
12,CACGCATACGGACACACACACACACCGATATATATA [CACACA_site4521],6.87
13,TTTTTTTTTTTTTTTTTTTTCATTCAATTATATTTA [CACACA_negctrl_site712],6.23
14,TTATCACATAAACGATGTACGTACTAGGTTTTTTTT [XGTACX_site2147],6.36
15,TGAATAATATACATACGTACATACATATATATAATA [XGTACX_site1302],6.17
16,ATAAAAAGGAAACACACACACACACCCATATATATA [CACACA_site904],6.98
17,AACTAATATAATAATACATGCACATAAAAATATATA [TGCATGCA_site606],9.35
18,AAAGGAATATAATGATGTACACAAATATATATACAT [XGTACX_site5347],6.72
19,GTAGTAAATAGGAGGATGCATATGGCACACATTATA [TGCATGCA_negctrl_site59],8.45
20,ATATAAAAATTAAAATGTACATATCTTATTATAATA [XGTACX_site983],6.09
21,CAACATAAAAATTAAGCATGCAATAGACTTGTGTTG [TGCATGCA_site417],6.76
22,TAATAAAATAATATCACACATATTTATATATATTAT [CACACA_site5814],6.12
23,GTTTAAAAAAATTATCAACTTTAAAAAGGTAACATT [XGTACX_negctrl_site203],6.08

row,Sequence,gcPBM binding intensity (ln)
1,ATATTTTATTATTGTTGTACTTTTTTTTTTTGATTG [XGTACX_site4091],6.47
2,ATAATATGAAAACACACACACACACTAATAAAAAAA [CACACA_site8617],6.97
3,TTTAATAAATAAATAAATAAAATATATTAAAAACCA [CACACA_negctrl_site80],6.19
4,TTTACTTTTTTTTCTTGTACTCATACATACTATCAT [XGTACX_site4919],7.07
5,AAATTTCAATAATCTACACACATAAAAAAACAAAAG [CACACA_site1702],7.1
6,GGCAACAATGTAGATTGTACATATGAATTTTACAAT [XGTACX_site5655],6.25
7,ATATATATTATCATTGTGCACTTATTTATATACCTT,10.4
8,TATTTAATAAAGAAATAAAAATAAAGAAAAAAAAAA [CACACA_negctrl_site74],6.23
9,ACCTACATAACATACACACGCATATATATAATTTTA [CACACA_site2847],7.35
10,AATTATTTATCGGAATGTACATAAAAACATATGTAT [XGTACX_site7443],7.07
11,AATAATATCATTTAGACACACACTCTTACAATATGT [CACACA_site8832],6.56
12,TATATACAAAATGCCTGTACATATATATTTATTTAT [XGTACX_site761],6.27
13,CATGCAAAAAATTCCACACACACACCCACATATAAA [CACACA_site1229],7.03
14,CTTTCTTATTTGAACGCATGCATTTGTACCTTTTAT [TGCATGCA_site671],6.85
15,GTATTATATTTCAACTGTACGTAAAACTATTAAAAT [XGTACX_site3679],6.55
16,TTCATTTAGCAAGAATGTACTTATATATATATATAT [XGTACX_site3401],9.23
17,CAAAAAAATGTGAAGGCATGCAAATATGTAAAATAA [TGCATGCA_site921],7.26
18,ATAAAGCCATACAATACACACATTTTACATGGGGGT [CACACA_site9072],7.27
19,CCATAAAAAGGATACACACACACACCGACATATATA [CACACA_site4653],6.89
20,AATAGCCCATATGGAATACACACTGAAAATAAAAAA [CACACA_site3373],6.86
